Test results from PubChem BioAssay AID686978 (National Center for Advancing Translational Sciences (NCATS), 2013).
The whole screen tested about 420,000 compounds, of which about 64,000 (15%) were called active. Inconclusive results, whose numbers are uncertain, are shown with a selection of clear calls. Calls come from the whole dose curve; as a rule, active = well fitted inhibition curve with a large enough effect; inconclusive = small, poorly fitted or top-dose-only effect; inactive = flat fitted curve, though single readings scatter. No potency is given beside an inconclusive call; the fits are too rough.

Experiment: qHTS for Inhibitors of human tyrosyl-DNA phosphodiesterase 1 (TDP1): qHTS in cells in absence of CPT; note: nearly all actives have a fitted effect of over 55% in size
Conditions: DT40 Tdp1-/- hTDP1 cells, no CPT, ATP luminescence, 48 h; activity change, negative = growth inhibition: at 46.2 µM (top of the series) unless noted
Summary of the method: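 Cells were dispensed at 400 per well, compounds added by pin tool, plates incubated ≥48 hr at 37 °C, then CellTiter-Glo added for 30 min at room temperature before luminescence reading. Line: DT40 Tdp1-/- complemented with hTDP1; camptothecin omitted.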
% is set by controls: 0 for no effect and ±100 for the full control effect; potency is the fitted concentration of half-maximal effect; tags give direction and shape of the fitted curve.

| SMILES | Potency | activity change, negative = growth inhibition |
| --- | --- | --- |
| Cc1ccc(C(=O)Nc2sc(Cc3ccc4c(c3)OCO4)c(C)c2C(N)=O)cc1 | inconclusive [inhibitor, single point] |  |
| CCOc1ccc(NC(=O)CN(C)C(=O)c2ccccc2-n2cnnn2)cc1OCC | inconclusive [inhibitor, partial curve, poor fit] |  |
| CC(=O)Nc1ccccc1OCc1cnc(Cl)s1 | inactive |  |
| CC(=O)c1c(C)[nH]c(-c2ccccc2)nc1=S | inconclusive [inhibitor, single point] |  |
| COC(=O)[C@@]12C[C@@H](CC(=O)N3CCC(c4ccccc4)CC3)C(=O)N(Cc3ccco3)C1=CCC(C)(C)C2 | inconclusive [inhibitor, single point] |  |
| COCCn1nnnc1C(c1ccc(OC)cc1OC)N1CCN(c2ccccc2)CC1 (centres undefined) | inactive |  |
| CCN(CC)C(=O)NC1CC(=O)N(c2ccc(OC)cc2)C1 (centres undefined) | inactive |  |
| O=C(CCS(=O)(=O)c1ccc(F)cc1)Nc1nc(-c2ccncc2)cs1 | active: 9.2 µM |  |
| O=c1c2c([nH]c3ccc(Br)cc13)CCCC2 | inconclusive [inhibitor, single point] |  |
| CCn1nccc1C(=O)Nc1cc(Cl)cc(Cl)c1 | inconclusive [inhibitor, partial curve] |  |
| O=C1C(Cl)=C(NS(=O)(=O)c2ccc([N+](=O)[O-])cc2)C(=O)c2ccccc21 | active: 8.2 µM |  |
| COC(=O)C1CCN(CC(=O)NC(=O)Nc2ccccc2F)CC1 | inactive |  |
| O=C(CSc1nnc(C23CC4CC(CC(C4)C2)C3)o1)Nc1ccc(N2CCOCC2)c(Cl)c1 | active: 17.8 µM |  |
| CCN1CCN(C(c2ccc(C(F)(F)F)cc2)c2ccc3cccnc3c2O)CC1 (centres undefined) | active: 16.4 µM |  |
| N[C@H](CCC(=O)N[C@H](CSN=O)C(=O)NCC(=O)O)C(=O)O | inactive |  |
| Fc1ccc(NCc2nnc(SCc3nnc(-c4ccccc4)o3)n2CC2CCCO2)cc1 (centres undefined) | inactive |  |
| CCCCN(C=O)c1c(CC)nc2ccc(C(=O)NCCOc3ccc(OC)cc3)cn12 | inconclusive [inhibitor, single point] |  |
| Cc1ccc(CCN=c2c([N+](=O)[O-])nn(-c3ccccc3)n2O)cc1 | inconclusive [inhibitor, partial curve] |  |
| Cc1cc(Cl)ccc1OCC(=O)OCC(=O)c1c(N)n(C)c(=O)n(C)c1=O | inactive |  |
| O=C(C(c1ccccc1)c1ccccc1)N1CCC(c2nc(-c3ccccc3Cl)no2)CC1 | inconclusive [inhibitor, single point] |  |
| Cc1nc2ccc(S(=O)(=O)N(C)CC(=O)N3CCc4ccccc4C3)cc2s1 |  | inconclusive: -33.8% [inhibitor] |
| CCN1CNC(=S)N(c2ccccc2C)C1 | inactive |  |
| Cc1cccc(NC(=O)COC(=O)CN2C(=O)C3CCCCC3C2=O)c1C (centres undefined) | inactive |  |
| O=C(c1ccccc1)c1cccc(NC(=O)c2ccco2)c1 | inconclusive [inhibitor, single point] |  |
| O=S(=O)(Nc1ccc(Br)cc1)N1CCOCC1 | inactive |  |

| SMILES | Potency | activity change, negative = growth inhibition |
| --- | --- | --- |
| CC(C)(C)CC(=O)Nc1cccc(-c2cn3cccnc3n2)c1 | inconclusive [inhibitor, single point] |  |
| C=CCNC(=O)CSc1nnc(-c2ccccc2Br)n1-c1cccc(C(F)(F)F)c1 | inconclusive [inhibitor, single point] |  |
| COc1ccc2[nH]c(C)c(CCN(Cc3cccs3)C(=S)Nc3ccc(F)cc3)c2c1 | inconclusive [inhibitor, single point] |  |
| Cc1ccc(OCCCCCCN2CCNCC2)c(Br)c1 | active: 20.6 µM |  |
| CC1=NN(c2ccccc2)C(=O)/C1=C\c1cn(C)c2ccccc12 | inconclusive [inhibitor, single point] |  |
| CSc1ccccc1OCc1cc(C(=O)N2CCc3sccc3C2)no1 | inactive |  |
| CCCn1nnnc1NCc1cccc(Cl)c1 | inactive |  |
| O=C(c1ccccc1)N(Cc1ccccc1)Cc1ccccc1 | inconclusive [inhibitor, partial curve, poor fit] |  |
| COc1cccc(C=C(C#N)C(=O)c2ccccc2)c1 | inactive |  |
| CCCCCCOC1(c2ccccc2)OC(=O)c2ccccc21 (centres undefined) |  | inconclusive: -31.1% [inhibitor] |
| O=C(CCS(=O)(=O)c1ccccc1)N(Cc1cccnc1)c1nc2c(Cl)cccc2s1 | active: 5.17 µM |  |
| O=C(Nc1ccccc1C(=O)OCc1cc(=O)n2c3c(sc2n1)CCCC3)c1ccccc1 | inconclusive [inhibitor, single point] |  |
| COc1ccccc1NC(=O)CCCC(=O)OCC(=O)c1ccc(F)cc1 | inactive |  |
| CCc1ccc(NC(=O)c2ccc3c(=O)n4nc(Nc5ccccc5C)sc4nc3c2)cc1 | active: 13 µM |  |
| O=C(N/N=C/c1ccc2c(c1)OCO2)c1cc(-c2ccco2)nc2ccccc12 | active: 7.31 µM |  |
| O=C(NCCCN1CCN(c2ccc(F)cc2)CC1)C1COc2ccccc2C1 (centres undefined) | inconclusive [inhibitor, single point] |  |
| COc1ccc(C(=O)c2c(C)oc3ccc(O)cc23)c(OC)c1 | inconclusive [inhibitor, single point] |  |
| COc1ccc2nc(N3CCCCC3)c(/C=C3\SC(=S)NC3=O)cc2c1 | inconclusive [inhibitor, single point] |  |
| O=C(OCc1cc(=O)n2ccsc2n1)c1ccc(OC(F)F)cc1 | inactive |  |
| CC(=O)C[C@H]1c2ccccc2S(=O)(=O)N1c1ccccc1 | inactive |  |
| Cc1cnc(C(=O)OCC(=O)NCc2ccc3c(c2)OCO3)cn1 | inactive |  |
| CCOc1ccc(NCC(=O)Nc2ccc(Cl)cc2C)cc1 | inconclusive [inhibitor, single point] |  |
| O=C(CSc1ccc(-c2cccc([N+](=O)[O-])c2)nn1)N1CCCCCC1 | inconclusive [inhibitor, partial curve] |  |
| Cc1csc2nc(CNS(=O)(=O)c3cccnc3)cn12 | inconclusive [inhibitor, full curve, poor fit] |  |
